A value given as a limit tells only on which side of the number the result lay.

The target of one experiment is ZIKV NS2B-G4SG4-NS3 serine protease (Zika virus, UniProt A0A024B7W1, R1467A/R1531G). In words: ZIKV protease inhibition assay. The format is biochemical.
Conditions: not given
In the case of `N[C@H]1CC[C@H](C[n+]2cc([N-]C(=O)Nc3cc(N4CCC(c5ccccc5)C4=O)cc(C(F)(F)F)c3)on2)CC1` (stereo partly drawn) [Example 132, (3-(((1R,4R)-4-Aminocyclohexyl)methyl)-1,2,3-oxadiazol-3-ium-5-yl)((3-(2-oxo-3-phenylpyrrolidin-1-yl)-5-(trifluoromethyl)-phenyl)carbamoyl)amide], the IC50 was in the range of 0.1 to 1 µM.

Regarding `NC[C@H]1CC[C@@H](C[n+]2cc([N-]C(=O)Nc3cc(N4CCC(c5ccccc5)C4=O)cc(C(F)(F)F)c3)on2)CC1` (stereo partly drawn) [Example 133, (3-(((1S,4S)-4-(Aminomethyl)cyclohexyl)-methyl)-1,2,3-oxadiazol-3-ium-5-yl)((3-(2-oxo-3-phenylpyrrolidin-1-yl)-5-(trifluoromethyl)-phenyl)carbamoyl)amide], the IC50 was less than 0.1 µM.

Take `CN(C)C[C@H]1CC[C@H]([n+]2cc([N-]C(=O)Nc3cc(NC(=O)Cc4ccccc4C(F)(F)F)cc(C(F)(F)F)c3)on2)CC1` [Example 166, (3-((1R,4R)-4-((Dimethylamino)methyl)-cyclohexyl)-1,2,3-oxadiazol-3-ium-5-yl)((3-(trifluoromethyl)-5-(2-(2-(trifluoromethyl)-phenyl)acetamido)phenyl)carbamoyl)amide]: the IC50 lay within 0.1 to 1 µM.

`CN(C)C[C@H]1CC[C@H]([n+]2cc([N-]C(=O)Nc3cc(NC(=O)Cc4cccc(O)n4)cc(C(F)(F)F)c3)on2)CC1` [Example 196, (3-((1R,4R)-4-((Dimethylamino)methyl)-cyclohexyl)-1,2,3-oxadiazol-3-ium-5-yl)((3-(2-(6-hydroxypyridin-2-yl)acetamido)-5-(trifluoromethyl)phenyl)carbamoyl)amide] came in with an IC50 of 1 to 20 µM.

The compound `CC(C(=O)Nc1cc(NC(=O)[N-]c2c[n+]([C@H]3CC[C@H](CN(C)C)CC3)no2)cc(C(F)(F)F)c1)c1ccccc1` (stereo partly drawn) [Example 164, (3-((1R,4R)-4-((Dimethylamino)methyl)-cyclohexyl)-1,2,3-oxadiazol-3-ium-5-yl)((3-(2-phenylpropanamido)-5-(trifluoromethyl)phenyl)-carbamoyl)amide] came in with an IC50 of less than 0.1 µM.

Take `CN(C)C[C@H]1CC[C@H]([n+]2cc([N-]C(=O)Nc3cc(NC(=O)C4Cc5ccccc54)cc(C(F)(F)F)c3)on2)CC1` (stereo partly shown) [Example 195]: the IC50 was 0.1 to 1 µM.

`N[C@H]1C[C@H]([n+]2cc([N-]C(=O)Nc3cc(NC(=O)Cc4ccccc4)cc(C(F)(F)F)c3)on2)C1` [Example 26, (3-((1R,3R)-3-Aminocyclobutyl)-1,2,3-oxadiazol-3-ium-5-yl)((3-(2-phenylacetamido)-5-(trifluoromethyl)phenyl)carbamoyl)amide]: the IC50 was 0.1 to 1 µM.

With `CC(C(=O)Nc1cc(NC(=O)[N-]c2c[n+]([C@H]3CC[C@H](CN(C)C)CC3)no2)cc(C(F)(F)F)c1)c1ccccc1Cl` (stereo partly drawn) [Example 205, ((3-(2-(2-Chlorophenyl)propanamido)-5-(trifluoromethyl)phenyl)carbamoyl)(3-((1R,4R)-4-((dimethylamino)methyl)cyclohexyl)-1,2,3-oxadiazol-3-ium-5-yl)amide], the IC50 lay in the range of 0.1 to 1 µM.

In the case of `Cc1ccccc1CC(=O)Nc1cc(NC(=O)[N-]c2c[n+]([C@H]3CC[C@H](C(=O)N4CCCC4)CC3)no2)cc(C(F)(F)F)c1` [Example 254, (3-((1R,4R)-4-(Pyrrolidine-1-carbonyl)-cyclohexyl)-1,2,3-oxadiazol-3-ium-5-yl)((3-(2-(o-tolyl)acetamido)-5-(trifluoromethyl)phenyl)-carbamoyl)amide], the IC50 was 0.1 to 1 µM.

The compound `O=C([N-]c1c[n+](C[C@H]2CC[C@@H](c3cncnc3)CC2)no1)Nc1cccc(C(F)(F)F)c1` [Example 179, (3-(((1S,4S)-4-(Pyrimidin-5-yl)cyclohexyl)-methyl)-1,2,3-oxadiazol-3-ium-5-yl)((3-(trifluoromethyl)phenyl)carbamoyl)amide] registered an IC50 of 1 to 20 µM.

Consider `O=C(Cc1ccccc1)Nc1cc(NC(=O)[N-]c2c[n+]([C@H]3CC[C@@H](CN4C(=O)c5ccccc5C4=O)CC3)no2)cc(C(F)(F)F)c1` [Example 60, (3-((1S,4S)-4-((1,3-Dioxoisoindolin-2-yl)methyl)cyclohexyl)-1,2,3-oxadiazol-3-ium-5-yl)((3-(2-phenylacetamido)-5-(trifluoromethyl)-phenyl)carbamoyl)amide], for which the IC50 fell in the range of 0.1 to 1 µM.

Take `CC(=O)NC[C@H]1CC[C@@H]([n+]2cc([N-]C(=O)Nc3cc(NC(=O)Cc4ccccc4)cc(C(F)(F)F)c3)on2)CC1` [Example 62, (3-((1S,4S)-4-(Acetamidomethyl)cyclohexyl)-1,2,3-oxadiazol-3-ium-5-yl)((3-(2-phenylacetamido)-5-(trifluoromethyl)phenyl)carbamoyl)amide]: the IC50 is less than 0.1 µM.

Compound `O=C([N-]c1c[n+](C[C@H]2CC[C@@H](NCC(F)(F)F)CC2)no1)Nc1cc(N2CCC(c3ccccc3)C2=O)cc(C(F)(F)F)c1` (stereo partly shown) [Example 136, ((3-(2-Oxo-3-phenylpyrrolidin-1-yl)-5-(trifluoromethyl)phenyl)carbamoyl)(3-(((1s,4s)-4-((2,2,2-trifluoroethyl)amino)cyclohexyl)methyl)-1,2,3-oxadiazol-3-ium-5-yl)amide] registered an IC50 of 0.1 to 1 µM.

Consider `O=C([N-]c1c[n+](C[C@H]2CC[C@@H](CNCC(F)(F)F)CC2)no1)Nc1cc(N2CCC(c3ccccc3)C2=O)cc(C(F)(F)F)c1` (stereo partly shown) [Example 139, ((3-(2-Oxo-3-phenylpyrrolidin-1-yl)-5-(trifluoromethyl)phenyl)carbamoyl)(3-(((1s,4s)-4-(((2,2,2-trifluoroethyl)amino)methyl)cyclohexyl)-methyl)-1,2,3-oxadiazol-3-ium-5-yl)amide], for which the IC50 is 0.1 to 1 µM.

In turn, `Cc1ccccc1CC(=O)Nc1cc(NC(=O)[N-]c2c[n+]([C@H]3CC[C@H](C(=O)N(C)C)CC3)no2)cc(C(F)(F)F)c1` [Example 248, (3-((1R,4R)-4-(Dimethylcarbamoyl)-cyclohexyl)-1,2,3-oxadiazol-3-ium-5-yl)((3-(2-(o-tolyl)acetamido)-5-(trifluoromethyl)phenyl)-carbamoyl)amide] returned an IC50 of 0.1 to 1 µM.

Turning to `CN(C)C[C@H]1CC[C@@H]([n+]2cc([N-]C(=O)Nc3cc(N4CCC(c5ccccc5)C4=O)cc(C(F)(F)F)c3)on2)CC1` (stereo partly drawn) [Example 138, (3-((1S,4S)-4-((Dimethylamino)methyl)-cyclohexyl)-1,2,3-oxadiazol-3-ium-5-yl)((3-(2-oxo-3-phenylpyrrolidin-1-yl)-5-(trifluoromethyl)-phenyl)carbamoyl)amide], the IC50 lay within 0.1 to 1 µM.

`CN(C)C[C@H]1CC[C@H]([n+]2cc([N-]C(=O)Nc3cc(NC(=O)Cc4cn(C)c5ccccc45)cc(C(F)(F)F)c3)on2)CC1` [Example 161, (3-((1R,4R)-4-((dimethylamino)methyl)-cyclohexyl)-1,2,3-oxadiazol-3-ium-5-yl)((3-(2-(1-methyl-1H-indol-3-yl)acetamido)-5-(trifluoromethyl)phenyl)carbamoyl)amide] had an IC50 of 1 to 20 µM.

The compound `CN(C)C[C@H]1CC[C@H]([n+]2cc([N-]C(=O)Nc3cc(NC(=O)Cc4cccc(F)c4F)cc(C(F)(F)F)c3)on2)CC1` [Example 169, ((3-(2-(2,3-Difluorophenyl)acetamido)-5-(trifluoromethyl)phenyl)carbamoyl)(3-((1R,4R)-4-((dimethylamino)methyl)cyclohexyl)-1,2,3-oxadiazol-3-ium-5-yl)amide] displayed an IC50 of less than 0.1 µM.

Still in this experiment, the particulars now being: 1.25 nM enzyme, 10 µM Bz-Nle-KRR-AMC substrate, 25 °C; read-out: Zika - NS3 protease.
`CN(C)C[C@H]1CC[C@H]([n+]2cc([N-]C(=O)Nc3cc(NC(=O)Cc4ccccc4)cc(C(F)(F)F)c3)on2)CC1` [Example 147, (3-((1R,4R)-4-((Dimethylamino)methyl)-cyclohexyl)-1,2,3-oxadiazol-3-ium-5-yl)((3-(2-phenylacetamido)-5-(trifluoromethyl)phenyl)-carbamoyl)amide]: the IC50 is less than 0.1 µM.

In the case of `CN(C)C[C@H]1CC[C@H]([n+]2cc([N-]C(=O)Nc3cc(NC(=O)Cc4cccc(CN)c4)cc(C(F)(F)F)c3)on2)CC1` [Example 163, ((3-(2-(3-(Aminomethyl)phenyl)acetamido)-5-(trifluoromethyl)phenyl)carbamoyl)(3-((1R,4R)-4-((dimethylamino)methyl)cyclohexyl)-1,2,3-oxadiazol-3-ium-5-yl)amide], the IC50 was 0.1 to 1 µM.

Consider `COc1ccccc1CC(=O)Nc1cc(NC(=O)[N-]c2c[n+](C3CCC(CN(C)C)CC3)no2)cc(C(F)(F)F)c1` [Example 153, (3-((1R,4R)-4-((Dimethylamino)methyl)-cyclohexyl)-1,2,3-oxadiazol-3-ium-5-yl)((3-(2-(2-methoxyphenyl)acetamido)-5-(trifluoromethyl)-phenyl)carbamoyl)amide], for which the IC50 was less than 0.1 µM.

Still in this experiment, the particulars now being: read-out: Zika - NS3 protease; 1.25 nM enzyme, 10 µM Bz-Nle-KRR-AMC substrate, 25 °C.
Take `O=C([N-]c1c[n+](Cc2ccccn2)no1)Nc1cc(NC(=O)C2CS(=O)(=O)CCO2)cc(C(F)(F)F)c1` (stereo not shown) [Example 88]: the IC50 is 1 to 20 µM.

As to `N#Cc1ccc2nc(C(=O)Nc3cc(NC(=O)[N-]c4c[n+](Cc5ccccn5)no4)cc(C(F)(F)F)c3)cn2c1` [Example 37], the IC50 was 0.1 to 1 µM.

Regarding `COc1ncc(-c2ccc(C[n+]3cc([N-]C(=O)Nc4cc(NC(=O)Cc5noc6ccccc56)cc(C(F)(F)F)c4)on3)cc2)c(C)n1` [Example 20], the IC50 is less than 0.1 µM.

`CN1CCCCC1C[n+]1cc([N-]C(=O)Nc2cc(NC(=O)Cc3ccccc3)cc(C3CC3)c2)on1` (stereo not shown) [Example 127]: the IC50 was less than 0.1 µM.

As to `N#Cc1ccn(C2(C(=O)Nc3cc(NC(=O)[N-]c4c[n+](Cc5ccccn5)no4)cc(C(F)(F)F)c3)CC2)n1` [Example 71], the IC50 lay in the range of 0.1 to 1 µM.

In the case of `Cc1oc(-c2ccccc2)nc1CC(=O)Nc1cc(NC(=O)[N-]c2c[n+](Cc3ccccn3)no2)cc(C(F)(F)F)c1` [Example 33], the IC50 was in the range of 1 to 20 µM.

For `O=C([N-]c1c[n+](Cc2ccccn2)no1)Nc1cc(NC(=O)C2(Oc3ccc(Cl)cc3)COC2)cc(C(F)(F)F)c1` [Example 83], the IC50 was in the range of 1 to 20 µM.

(Values after patent EP4563146A1 (IRBM S.P.A., priority 2023, dated 2025).)
